Experimental data from patent US20240076391A1 (ONCURIOUS, published 2024).

B1: VHH-Fc-222 (Fc fusion)
chain: EVQLVESGGGLVQPGGSLRLSCAASGSTFSIKSIGWYRQAPGKQRELVADITRGAGINYADSVKGRFTISRDNTKNTMYLQMNSLRPEDTAVYYCNVKTIKRTGGIMTGSKIEYDYWGQGTLVTVSSGGGGSGGGGS[letters of human IgG1 Fc omitted]
notes: also called VHFc-222
B2: VHH-Fc-221 (Fc fusion)
chain: EVQLVESGGGLVQPGGSLRLSCAASGSTFSIKSIGWYRQAPGKQRELVADITRGAGINYADSVKGRFTISRDNTKNTMYLQMNSLRPEDTAVYYCNVKTIKRTGGIMTGSKIEYDYWGQGTLVTVSS[letters of human IgG1 Fc omitted]
B3: VHH-Fc-201 (Fc fusion)
chain: EVQLVESGGGLVQPGGSLRLSCAASRSIYNVMAMGWYRQAPGKERELVAVVWSSGNTNYADSVKGRFTVSRDNAKNTVYLQMNSLRPEDTAVYYCYSKSLIGTSRYEIWGQGTLVTVSSGGGGSGGGGS[letters of human IgG1 Fc omitted]
B4: VHH-Fc-212 (Fc fusion)
chain: EVQLVESGGGLVQPGGSLRLSCAASGRAFSSYNMGWFRQAPGKERDFVATISSSGTNYANSVKGRFTISRDNAKNTVYLQMNSLRPEDTAVYYCNAKTVTRTGGVITGSRIEYDYWGQGTLVTVSS[letters of human IgG1 Fc omitted]
B5: VHH-Fc-213 (Fc fusion)
chain: EVQLVESGGGLVQPGGSLRLSCAASGRAFSSYNMGWFRQAPGKERDFVATISSSGTNYANSVKGRFTISRDNAKNTVYLQMNSLRPEDTAVYYCNAKTVTRTGGVITGSRIEYDYWGQGTLVTVSSGGGGSGGGGS[letters of human IgG1 Fc omitted]
B6: VHH-Fc-202 (Fc fusion)
chain: EVQLVESGGGLVQPGGSLRLSCAASRSIYNVMAMGWYRQAPGKERELVAVVWSSGNTNYADSVKGRFTVSRDNAKNTVYLQMNSLRPEDTAVYYCYSKSLIGTSRYEIWGQGTLVTVSSGGGGSGGGGSGGGGSGGGGS[letters of human IgG1 Fc omitted]
B7: VHH-Fc-214 (Fc fusion)
chain: EVQLVESGGGLVQPGGSLRLSCAASGRAFSSYNMGWFRQAPGKERDFVATISSSGTNYANSVKGRFTISRDNAKNTVYLQMNSLRPEDTAVYYCNAKTVTRTGGVITGSRIEYDYWGQGTLVTVSSGGGGSGGGGSGGGGSGGGGS[letters of human IgG1 Fc omitted]
B8: VHH-Fc-200 (Fc fusion)
chain: EVQLVESGGGLVQPGGSLRLSCAASRSIYNVMAMGWYRQAPGKERELVAVVWSSGNTNYADSVKGRFTVSRDNAKNTVYLQMNSLRPEDTAVYYCYSKSLIGTSRYEIWGQGTLVTVSS[letters of human IgG1 Fc omitted]
B9: VHH-Fc-223 (Fc fusion)
chain: EVQLVESGGGLVQPGGSLRLSCAASGSTFSIKSIGWYRQAPGKQRELVADITRGAGINYADSVKGRFTISRDNTKNTMYLQMNSLRPEDTAVYYCNVKTIKRTGGIMTGSKIEYDYWGQGTLVTVSSGGGGSGGGGSGGGGSGGGGS[letters of human IgG1 Fc omitted]

The binders below were run against T1, human CCR8 (human, UniProt P51685 1-355) (assay: flow cytometry, human CCR8 on stably transfected HEK293 cells).
T1 construct: also called hCCR8
Procedure: The twelve multivalent VHH-Fc fusions were evaluated for their ability to bind to human CCR8 on stably transfected HEK293 cells by means of flow cytometry experiments. Cells were incubated with different concentrations of the multivalent VHH-Fc fusions for 30 minutes at 4° C., followed by two washes with FACS buffer, followed by 30 minutes incubation at 4° C. with R-Phycoerythrin AffiniPure F(ab′) 2 Fragment Goat Anti-human IgG (Jackson ImmunoResearch, cat. #109-116-098), followed by two washing steps. Dead cells were stained using TOPRO3 (Thermo Fisher Scientific, T3605).

Chain of human CCR8 (P51685 whole entry): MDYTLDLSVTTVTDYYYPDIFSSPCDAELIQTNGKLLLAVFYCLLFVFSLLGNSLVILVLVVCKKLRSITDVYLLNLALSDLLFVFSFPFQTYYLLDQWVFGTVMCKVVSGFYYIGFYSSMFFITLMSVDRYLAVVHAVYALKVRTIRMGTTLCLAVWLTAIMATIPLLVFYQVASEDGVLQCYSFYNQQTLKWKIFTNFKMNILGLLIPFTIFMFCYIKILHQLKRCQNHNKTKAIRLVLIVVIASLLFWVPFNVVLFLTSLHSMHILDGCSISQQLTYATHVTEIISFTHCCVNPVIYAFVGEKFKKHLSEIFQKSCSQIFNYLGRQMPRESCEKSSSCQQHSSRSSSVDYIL

binding result	Binder
binds	B1
binds	B2
binds	B3
binds	B4
binds	B5
binds	B6
binds	B7
binds	B8
binds	B9
